Reference: paper PMC6175206
Results are given in words; binding and its absence hold for the method and conditions named. For some of these results: In cells and extracts the contact can be indirect. Some entries that bind do so weakly or less than the wild type. Tags and fused reporters may be left off the sequences shown.

T1: N-terminally 3xFLAG-tagged Rhodobacter sphaeroides 2.4.1 bacteriochlorophyll synthase (BchG) (Rhodobacter sphaeroides 2.4.1) (UniProt Q9Z5D6)
T1 sequence: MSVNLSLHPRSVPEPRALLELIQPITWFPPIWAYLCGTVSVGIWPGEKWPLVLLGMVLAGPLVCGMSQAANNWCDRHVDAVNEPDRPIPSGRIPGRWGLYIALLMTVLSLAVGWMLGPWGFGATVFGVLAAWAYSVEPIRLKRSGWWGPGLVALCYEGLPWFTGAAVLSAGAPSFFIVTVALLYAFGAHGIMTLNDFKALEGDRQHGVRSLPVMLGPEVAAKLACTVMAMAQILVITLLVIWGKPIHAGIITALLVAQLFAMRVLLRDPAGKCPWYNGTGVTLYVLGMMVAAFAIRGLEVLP

T2: N-terminally 3xFLAG-tagged Synechocystis sp. PCC 6803 chlorophyll synthase (ChlG) (Synechocystis sp. PCC 6803) (UniProt Q55145)
T2 sequence: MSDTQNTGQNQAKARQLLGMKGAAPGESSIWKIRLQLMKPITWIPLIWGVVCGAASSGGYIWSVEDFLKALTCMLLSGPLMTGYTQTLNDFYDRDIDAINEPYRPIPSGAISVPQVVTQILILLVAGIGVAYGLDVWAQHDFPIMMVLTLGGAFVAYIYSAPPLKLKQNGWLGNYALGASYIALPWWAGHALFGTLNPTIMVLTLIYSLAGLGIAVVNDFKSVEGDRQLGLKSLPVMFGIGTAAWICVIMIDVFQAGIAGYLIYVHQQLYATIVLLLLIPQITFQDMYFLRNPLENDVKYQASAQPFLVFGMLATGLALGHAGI

T3: N-terminally 3xFLAG-tagged Arabidopsis thaliana chlorophyll synthase (ChlG) lacking the chloroplast transit peptide (Arabidopsis thaliana) (UniProt Q38833)
T3 sequence: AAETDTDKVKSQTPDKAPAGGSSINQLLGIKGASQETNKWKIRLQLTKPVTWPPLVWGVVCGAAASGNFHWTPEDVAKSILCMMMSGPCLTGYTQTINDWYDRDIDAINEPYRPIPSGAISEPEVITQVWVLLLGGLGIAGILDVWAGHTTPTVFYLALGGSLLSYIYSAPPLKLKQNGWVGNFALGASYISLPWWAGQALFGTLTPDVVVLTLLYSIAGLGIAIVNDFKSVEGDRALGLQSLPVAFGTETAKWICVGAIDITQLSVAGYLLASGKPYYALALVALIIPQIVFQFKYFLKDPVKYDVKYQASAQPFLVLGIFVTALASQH

B1: membrane insertase YidC (Slr1471) (protein, UniProt P74155 1-384)
chain: MDFGIGFISTNIMLPILDFFFGIVHSYGFAIIALTLVIRLGLYPLSAGQIRNMRKMRITQPLMKERQEEIQKRYKDDPAKQQEEMAKVMKEFGNPLAGCLPLLLQMPILFALFATLRGSPFSDINYTVDLQILPQEQVERIVPQTFSTKPQNIYVDEALHYPIAVFLPGGKMLGVGEKTQLEIQSTEGKAFNQVIPEKNSQILTPTYSVTKGEDRISVNPDGTIEALVPGDATVQVTIPGIAARTGFLFIKALGQVGVTGENGEINWDILGMIVFFGFSIYLNQELSGASGGGAPNAQAQQQQTINKITPILFSGMFLFFPLPAGVLMYIVMANVFQTIQTLILMREPLPENLQKLLDEQQKATQGRESLPFEKKSSKKKEKTS
B2: photosystem II assembly factor Ycf39 (Slr0399) (protein, UniProt P74429 1-326)
chain: MRVLVVGGTGTLGRQIVRQAIDQGHTVVCLVRSLRKAAFLKEWGATIVGGNICKPETLSPALENIDAVIDASTARATDSLTIRQVDWEGKLNLIRAVQKAGIKKFVFFSILRAAEYPKVPLMDIKNCTEKFLAQTNLDYTILQLAGFMQGLIGQYAIPILDNQSVWQTGENTPIAYMNTQDVAKFAVRAVELDSVARKTYPVVGSRAWGATEIIQLCERMSGNNARISQVPMAVLRFMRSFTRFFQWTYNASDRLAFSEVLASGKALTADMAPVYEQFGLDPKETTTLESYLQEYFGRIIKKLKELDYEVNPTQTEGKKKKNNFFF
B3: N-terminally 3xFLAG-tagged Arabidopsis thaliana chlorophyll synthase (ChlG) lacking the chloroplast transit peptide (enzyme, UniProt Q38833 58-387)
chain: T3 sequence
B4: high light-inducible protein D (HliD, Ssr1789) (protein, UniProt P72932 1-57)
chain: MSEELQPNQTPVQEDPKFGFNNYAEKLNGRAAMVGFLLILVIEYFTNQGVLAWLGLR

Columns and labels:
[1] = target: T1, N-terminally 3xFLAG-tagged Rhodobacter sphaeroides 2.4.1 bacteriochlorophyll synthase (BchG) (Rhodobacter sphaeroides 2.4.1); assay: co-IP; anti-FLAG-M2 agarose column with membranes solubilised in 2% β-DDM; FLAG-buffer (25 mM sodium phosphate pH 7.4, 10 mM MgCl2, 50 mM NaCl, 10% glycerol), wash with 0.04% β-DDM, elution with 3xFLAG peptide; eluates read by SDS/PAGE and immunoblot; FLAG-6803 also before and after high light stress
[2] = target: T2, N-terminally 3xFLAG-tagged Synechocystis sp. PCC 6803 chlorophyll synthase (ChlG) (Synechocystis sp. PCC 6803); assay: as above
[3] = target: T3, N-terminally 3xFLAG-tagged Arabidopsis thaliana chlorophyll synthase (ChlG) lacking the chloroplast transit peptide (Arabidopsis thaliana); assay: as above
[4] = target: T3, N-terminally 3xFLAG-tagged Arabidopsis thaliana chlorophyll synthase (ChlG) lacking the chloroplast transit peptide (Arabidopsis thaliana); assay: SEC; FLAG eluate adjusted to 1% β-DDM, Bio-Sep 3000 gel filtration column on HPLC; fractions read by immunoblot; cells from moderate or normal light
[5] = target: T2, N-terminally 3xFLAG-tagged Synechocystis sp. PCC 6803 chlorophyll synthase (ChlG) (Synechocystis sp. PCC 6803); assay: condition: only after high light stress (~800 μmol photons·m^-2·s^-1 for 80 min); SEC; gel filtration of the FLAG-6803 eluate from cells after high light stress (~800 μmol photons·m^-2·s^-1 for 80 min)
[6] = target: T2, N-terminally 3xFLAG-tagged Synechocystis sp. PCC 6803 chlorophyll synthase (ChlG) (Synechocystis sp. PCC 6803); assay: condition: only after high light stress (~800 μmol photons·m^-2·s^-1 for 80 min); co-IP; anti-FLAG immunoprecipitation from FLAG-6803 cells after high light stress (~800 μmol photons·m^-2·s^-1 for 80 min); eluates read by SDS/PAGE, immunoblot and mass spectrometry
[7] = target: T2, N-terminally 3xFLAG-tagged Synechocystis sp. PCC 6803 chlorophyll synthase (ChlG) (Synechocystis sp. PCC 6803); assay: SEC; FLAG eluate adjusted to 1% β-DDM, Bio-Sep 3000 gel filtration column on HPLC; fractions read by immunoblot; cells from moderate or normal light
[8] = target: T3, N-terminally 3xFLAG-tagged Arabidopsis thaliana chlorophyll synthase (ChlG) lacking the chloroplast transit peptide (Arabidopsis thaliana); assay: SDS/PAGE band with immunoblot; FLAG-immunoprecipitation eluates on SDS/PAGE; a prominent band cross-reacts with anti-FLAG and anti-ChlG antibodies

Row | Binder | binding [1] | binding [2] | binding [3] | binding [4] | binding [5] | binding [6] | binding [7] | binding [8]
1 | B1 | binds | binds | binds | binds |  |  |  | 
2 | B2 |  | binds | no binding | no binding | no binding | no binding | binds | 
3 | B3 |  |  |  |  |  |  |  | binds
4 | B4 |  |  | no binding | no binding |  |  |  | 
